Out of some 280,000 compounds screened, about 100 (0.036%) were called active. Inconclusive means that the source gave no clear call. Such entries were picked first, then a sample of the others. The call rests on the fitted dose curve; in most records, active means well fitted inhibition curve with a large enough effect in the signal ratio, with a control signal flat (not every such curve was filed as active); inconclusive means small, poorly fitted or top-dose-only effect, or effect the other way, or a change in a side signal; inactive means no such curve, though single readings can be large or run the other way; the % refers to the signal ratio. A potency beside an inconclusive call is a rough fit, not a confirmed value. “Side channel” marks fits to a control or component signal instead of the main read-out.
molecular target: Muscleblind-like protein 1 (Homo sapiens) (UniProt Q9NR56); test: qHTS Assay for Inhibitors of MBNL1-poly(CUG) RNA binding; conditions: TR-FRET MBNL1-His/biotin-(CUG)12 binding, 665/545 ratio; series mostly up to 57.5 µM
Sequence of UniProt Q9NR56 (Q9NR56 whole entry, looked up): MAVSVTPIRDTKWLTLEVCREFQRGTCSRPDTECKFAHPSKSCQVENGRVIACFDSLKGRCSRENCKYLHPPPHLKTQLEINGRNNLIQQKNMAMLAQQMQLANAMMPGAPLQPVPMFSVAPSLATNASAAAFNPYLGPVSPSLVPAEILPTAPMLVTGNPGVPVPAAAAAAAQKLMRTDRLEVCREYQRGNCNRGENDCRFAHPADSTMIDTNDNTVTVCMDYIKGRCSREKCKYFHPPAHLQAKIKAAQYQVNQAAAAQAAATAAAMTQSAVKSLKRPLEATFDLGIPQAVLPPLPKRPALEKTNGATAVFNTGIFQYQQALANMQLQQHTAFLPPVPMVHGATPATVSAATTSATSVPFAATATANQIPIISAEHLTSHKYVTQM
Method in brief: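 MBNL1-His + Biotin-(CUG)12, cpd titration 92 nM–58 uM; Tb anti-His Ab 0.055 ng/ul, SA-XL665 5 nM (final); 60 min RT; ratiometric 665/545 nm, Ex 340 nm; normalized to buffer and full-complex controls.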
Potency means the concentration at half of the fitted maximal effect; tags describe the fitted curve by direction and shape or compound fluorescence and quenching.

Compound | Potency
Cc1nc2sc(-c3ccccc3)cc2c(=O)n1/N=C/N(C)C | inconclusive: 25.1 µM [quencher, partial curve]
O=c1oc2ccccc2cc1-c1csc(NN=C2CCCCC2)n1 | inconclusive: 14.1 µM [quencher, side channel, partial curve]
COc1cccc(/C=N/NC(=O)C(c2ccncc2)N2CCOCC2)c1 (stereo not drawn) | inactive
c1ccc(-c2nc(N3CCN(c4ccccc4)CC3)nc(-n3ccnc3)n2)cc1 | inactive
Cc1cc(C)nc(SCC(=O)c2cc3ccccc3oc2=O)n1 | inconclusive: 8.91 µM [quencher, side channel, partial curve]
CCNC(=O)/C(C#N)=C/c1c(N(Cc2ccccc2)Cc2ccccc2)nc2ccccn2c1=O | inconclusive: 20 µM [quencher, side channel, partial curve]
COc1c(O)c(O)c2oc(-c3ccccc3)cc(=O)c2c1OC | inconclusive: 31.6 µM [quencher, side channel, single point]
COc1cc(NC2=Nc3cccc4cccc2c34)cc(OC)c1OC | inconclusive: 28.2 µM [quencher, side channel, partial curve, poor fit]
CCN(CC)C(=O)CN1C(=O)c2cccc3cccc(c23)C1=O | inconclusive: 6.31 µM [quencher, side channel, partial curve]
COc1ccc(N(C(=O)c2snc(C(N)=O)c2N)C(CC(C)C)C(=O)NCC2CCCO2)cc1 (stereo not drawn) | inconclusive: 20 µM [quencher, side channel, partial curve]
CC1=C(C(=O)N2CCCC(C(=O)c3cccc4ccccc34)C2)OCCO1 (stereo not drawn) | inactive
CN(C)c1cccc(C(=O)OCC(=O)N(C)c2ccccc2)c1 | inactive
COc1ccc(-c2csc(NNC3=NCCCCC3)n2)cc1 | inactive
N#CCCN(Cc1cccnc1)C(=S)NC1CC2C=CC1C2 (stereo not drawn) | inactive
O=[N+]([O-])c1cccc(CN2CCN(c3ncccn3)CC2)c1 | inconclusive: 17.8 µM [quencher, side channel, partial curve]
COc1ccc(NC(=O)Cn2nnc(C(=O)NCc3ccc4c(c3)OCO4)c2N)c(OC)c1 | inconclusive: 100 µM [inhibitor, single point]
COc1cc(CN(C)C(C)C(=O)Nc2ccc([N+](=O)[O-])cc2Cl)ccc1OC(F)F (stereo not drawn) | inactive
CC(=O)c1ccc(OCC(O)CN2CCN(CCN3C(=O)c4cccc5cccc(c45)C3=O)CC2)cc1 (stereo not drawn) | inconclusive: 10 µM [quencher, side channel, partial curve]
C/C(=N/Nc1ncc(Br)cn1)c1ccc(Br)cc1 | inactive
Cc1cccc(N2C(=O)c3ccc(C(=O)Nc4ccccn4)cc3C2=O)c1 | inconclusive: 3.16 µM [quencher, full curve]
Cc1ccc(C(=O)O/N=C(\N)c2cccnc2)cc1[N+](=O)[O-] | inconclusive: 0.282 µM [quencher, side channel, full curve, poor fit]

Compound | Potency
Cc1cccc(C(=O)O)c1NC(=O)c1ccc(F)cc1 | inactive
O=C(CN1CCC(n2nnc3cc(C(F)(F)F)ccc32)CC1)Nc1ccc2c(c1)OCCO2 | inactive
CCCC(=O)NC(=S)Nc1cccc(NC(=O)c2ccccc2)c1 | inactive
CSc1nc(N)nc(SCC(=O)Nc2cccc(F)c2)c1C#N | inconclusive: 5.01 µM [fluorescent, side channel, single point]
CCCCC(=O)Nc1cc([N+](=O)[O-])ccc1F | inconclusive: 11.2 µM [quencher, partial curve]
COc1ccc(CNC(=O)c2ccccc2[N+](=O)[O-])cc1 | inconclusive: 17.8 µM [quencher, side channel, partial curve]
COc1cc(/C=C2\C(=N)N3N=CSC3=NC2=O)ccc1OS(=O)(=O)c1ccccc1 | inactive
O=c1cc(/C=C/c2ccccc2)oc2ccccc12 | inconclusive: 17.8 µM [quencher, single point]
O=C(NCCCn1ccnc1)c1ccc(Br)c(S(=O)(=O)N2CCOCC2)c1 | inactive
Cc1cccn2c(=O)c3cc(C(=O)NC(C)C)c(=N)n(Cc4ccncc4)c3nc12 | inconclusive: 5.01 µM [quencher, side channel, partial curve]
O=C(COC(=O)Cc1ccccc1F)Nc1ccc2c(c1)OCCO2 | inconclusive: 0.0891 µM [fluorescent, side channel, full curve, poor fit]
Cc1c(Cl)cccc1NC(=O)CCS(=O)(=O)c1cccc2nonc12 | inconclusive: 3.16 µM [quencher, side channel, full curve]
Cn1c2ccccc2c2cc([N+](=O)[O-])ccc21 | inactive
CC(=O)N1CCN(c2cc(N3CCc4ccccc4C3)c(F)cc2[N+](=O)[O-])CC1 | inconclusive: 8.91 µM [quencher, side channel, full curve]
Cc1ccccc1C(=O)OCc1nnc(-c2ccc(Cl)cc2)o1 | inactive
O=C1c2ccc([N+](=O)[O-])cc2NC(c2ccco2)N1/N=C/c1ccco1 (stereo not drawn) | inconclusive: 14.1 µM [quencher, partial curve]
O=C1CC(=O)N(Cc2ccco2)C(=O)N1 | inconclusive: 63.1 µM [inhibitor, single point]
CCC(C)NC(=O)CSc1nc(-c2cccs2)cc(C(F)(F)F)n1 (stereo not drawn) | inconclusive: 15.8 µM [quencher, side channel, partial curve, poor fit]
CC(C)(C)c1ccc(OCc2ccc(C(=O)Nc3cccnc3)o2)cc1 | inactive
O=c1oc2ccccc2c(Nc2ccccc2O)c1[N+](=O)[O-] | inconclusive: 15.8 µM [quencher, side channel, partial curve]
COC(=O)c1cc(C(=O)Nc2ccc(Cl)cn2)cc([N+](=O)[O-])c1 | inconclusive: 8.91 µM [quencher, side channel, partial curve]

Compound | Potency
CCC1CCCCN1Cc1cc(OC)c(O)c([N+](=O)[O-])c1 (stereo not drawn) | inconclusive: 28.2 µM [quencher, side channel, single point]
COc1ccc(OC)c(/C=N/NC(=O)C(O)c2ccccc2)c1 (stereo not drawn) | inconclusive: 25.1 µM [quencher, side channel, partial curve]
CCOC(=O)C(=O)Nc1ccc([N+](=O)[O-])cc1OC | inconclusive: 15.8 µM [quencher, side channel, partial curve]
CN1/C(=C\C(=O)COC(=O)CNC(=O)c2ccc3ccccc3c2)C(C)(C)c2ccccc21 | inactive
O=C1/C(=C\c2ccc(Br)o2)Cc2ccccc21 | inconclusive: 6.31 µM [quencher, side channel, full curve]
O=C(c1ccco1)N1CCN(CCOCCOc2cccc3ccccc23)CC1 | inactive
O=C(Nc1ccccc1N1CCCCC1)c1ccc2nccnc2c1 | inconclusive: 28.2 µM [quencher, side channel, single point]
CC[C@H](C)[C@@H]1NC(=O)c2cc([N+](=O)[O-])cc(I)c2NCC[C@@H](C(N)=O)NC(=O)[C@H](CCCN=C(N)N)NC1=O | inconclusive: 11.2 µM [quencher, side channel, partial curve]
CN1CCN(S(=O)(=O)c2ccc(Br)c3nsnc23)CC1 | inconclusive: 11.2 µM [quencher, side channel, partial curve]
COc1ccc(CNS(=O)(=O)c2ccc(-c3ccc(=O)[nH]n3)s2)cc1OC | inconclusive: 25.1 µM [quencher, side channel, partial curve]
N#CCCSc1ccccc1NC(=O)c1cc(=O)c2ccccc2o1 | inconclusive: 15.8 µM [quencher, side channel, partial curve]
COc1ccc(-c2cc(C3CCN(c4ncccc4[N+](=O)[O-])CC3)[nH]n2)cc1 | inconclusive: 20 µM [quencher, side channel, single point]
CC(=N\NC(=O)c1cc(Br)ccc1O)/C(=N/O)C(=O)Nc1ccccc1 | inconclusive: 25.1 µM [quencher, side channel, single point]
Cc1cc([N+](=O)[O-])cc2c1NC(=O)C2(O)N1CCCC(C)C1 (stereo not drawn) | inconclusive: 25.1 µM [quencher, single point]
COc1cccc(CCc2nnc(CCC(=O)NCCc3cccc(C)n3)o2)c1 | inconclusive: 7.94 µM [inhibitor, single point]
COc1ccc(-n2c(SCC(=O)NCC3CCCO3)nc3c(c2=O)SCC3)cc1OC (stereo not drawn) | inconclusive: 15.8 µM [quencher, side channel, partial curve]
O=C(O)C1CCC1C(=O)Nc1nc(-c2ccc(Cl)s2)cs1 (stereo not drawn) | inactive
CCOC(=O)C1CCCN(C(=O)COC(=O)c2cc(=O)c3ccccc3o2)C1 (stereo not drawn) | inconclusive: 10 µM [quencher, side channel, partial curve]
Cc1ccc2cc(/C=N/Nc3ccc(C(=O)O)cc3)c(Cl)nc2c1 | inconclusive: 20 µM [quencher, side channel, partial curve]
O=C(Cn1nc(-c2ccc(Cl)cc2)ccc1=O)NCCCN1CCN(Cc2ccccc2)CC1 | inconclusive: 17.8 µM [quencher, side channel, partial curve]
CCCc1cc(=O)[nH]c(N/N=C/C=C\c2ccccc2)n1 | inconclusive: 14.1 µM [quencher, side channel, partial curve]

From PubChem BioAssay AID2675 (National Center for Advancing Translational Sciences (NCATS), 2010)
